Measured values as given in patent US20170210809A1 (DYAX, published 2017).

B1: AB5-7N/AB2-21C (bispecific antibody)
chain: EVQLLESGGGLVQPGGSLRLSCAASGFTFSVYPMHWVRQAPGKGLEWVSSISSSGGATRYADSVKGRFTISRDNSKNTLYLQMNSLRAEDTAVYYCAKDFYDILTGNAFDIWGQGTMVTVSSASTGGGGSGGGGSGGGGSDIQMTQSPSSFSASTGDRVTITCRASQGISSYLAWYQQKPGKAPKLLIYAASTLQSGVPSRFSGSGSGTDFTLTISSLQPEDSATYYCQQYFTFPLTFGGGTKVEIKGAAS[letters of about 600 residues left out]AAALQEVQLLESGGGLVQPGGSLRLSCAASGFTFSVYDMYWVRQAPGKGLEWVSYIYSSGGDTDYADSVKGRFTISRDNSKNTLYLQMNSLRAEDTATYYCARASTNSIYDAMDVWGQGTTVTVSSASTGGGGSGGGGSGGGGSDIQMTQSPSSVSASVGDRVTITCRASQDITNWLAWYQQKPGKAPTLLIYDASTLQSGVPSRFSGSGSGTDFTLTISSLQPEDFATYFCQQANGFPLTFGGGTKVEIK
B2: AB5-7N/AB2-3C (bispecific antibody)
chain: EVQLLESGGGLVQPGGSLRLSCAASGFTFSVYPMHWVRQAPGKGLEWVSSISSSGGATRYADSVKGRFTISRDNSKNTLYLQMNSLRAEDTAVYYCAKDFYDILTGNAFDIWGQGTMVTVSSASTGGGGSGGGGSGGGGSDIQMTQSPSSFSASTGDRVTITCRASQGISSYLAWYQQKPGKAPKLLIYAASTLQSGVPSRFSGSGSGTDFTLTISSLQPEDSATYYCQQYFTFPLTFGGGTKVEIKGAAS[letters of about 600 residues left out]AAALQEVQLLESGGGLVQPGGSLRLSCAASGFTFSAYNMRWVRQAPGKGLEWVSVIYPSGGATRYADSVKGRFTISRDNSKNTLYLQMNSLRAEDTAVYYCARGYYYYGMDVWGQGTLVTVSSASTGGGGSGGGGSGGGGSQSVLTQPPSASGTPGQRVTISCSGSDSNIGRNYIYWYQQFPGTAPKLLIYRNNQRPSGVPDRISGSKSGTSASLAISGLRSEDEAEYHCGTWDDSLSGPVFGGGTKLTVLS
B3: AB5-7N/AB2-6C (bispecific antibody)
chain: EVQLLESGGGLVQPGGSLRLSCAASGFTFSVYPMHWVRQAPGKGLEWVSSISSSGGATRYADSVKGRFTISRDNSKNTLYLQMNSLRAEDTAVYYCAKDFYDILTGNAFDIWGQGTMVTVSSASTGGGGSGGGGSGGGGSDIQMTQSPSSFSASTGDRVTITCRASQGISSYLAWYQQKPGKAPKLLIYAASTLQSGVPSRFSGSGSGTDFTLTISSLQPEDSATYYCQQYFTFPLTFGGGTKVEIKGAAS[letters of about 600 residues left out]AAALQEVQLLESGGGLVQPGGSLRLSCAASGFTFSHYVMAWVRQAPGKGLEWVSSISSSGGWTLYADSVKGRFTISRDNSKNTLYLQMNSLRAEDTAVYYCTRGLKMATIFDYWGQGTLVTVSSASTGGGGSGGGGSGGGGSQSALTQPASVSGSPGQSITISCTGTSSDVGSYNVVSWYQQHPGKAPKLIIYEVSQRPSGVSNRFSGSKSGNTASLTISGLQTEDEADYYCCSYAGSSIFVIFGGGTKVTVL
B4: AB2-3N/AB5-7C (bispecific antibody)
chain: EVQLLESGGGLVQPGGSLRLSCAASGFTFSAYNMRWVRQAPGKGLEWVSVIYPSGGATRYADSVKGRFTISRDNSKNTLYLQMNSLRAEDTAVYYCARGYYYYGMDVWGQGTLVTVSSASTGGGGSGGGGSGGGGSQSVLTQPPSASGTPGQRVTISCSGSDSNIGRNYIYWYQQFPGTAPKLLIYRNNQRPSGVPDRISGSKSGTSASLAISGLRSEDEAEYHCGTWDDSLSGPVFGGGTKLTVLSGAAS[letters of about 600 residues left out]AAALQEVQLLESGGGLVQPGGSLRLSCAASGFTFSVYPMHWVRQAPGKGLEWVSSISSSGGATRYADSVKGRFTISRDNSKNTLYLQMNSLRAEDTAVYYCAKDFYDILTGNAFDIWGQGTMVTVSSASTGGGGSGGGGSGGGGSDIQMTQSPSSFSASTGDRVTITCRASQGISSYLAWYQQKPGKAPKLLIYAASTLQSGVPSRFSGSGSGTDFTLTISSLQPEDSATYYCQQYFTFPLTFGGGTKVEIK
B5: AB2-21N/AB5-7C (bispecific antibody)
chain: EVQLLESGGGLVQPGGSLRLSCAASGFTFSVYDMYWVRQAPGKGLEWVSYIYSSGGDTDYADSVKGRFTISRDNSKNTLYLQMNSLRAEDTATYYCARASTNSIYDAMDVWGQGTTVTVSSASTGGGGSGGGGSGGGGSDIQMTQSPSSVSASVGDRVTITCRASQDITNWLAWYQQKPGKAPTLLIYDASTLQSGVPSRFSGSGSGTDFTLTISSLQPEDFATYFCQQANGFPLTFGGGTKVEIKGAAS[letters of about 600 residues left out]AAALQEVQLLESGGGLVQPGGSLRLSCAASGFTFSVYPMHWVRQAPGKGLEWVSSISSSGGATRYADSVKGRFTISRDNSKNTLYLQMNSLRAEDTAVYYCAKDFYDILTGNAFDIWGQGTMVTVSSASTGGGGSGGGGSGGGGSDIQMTQSPSSFSASTGDRVTITCRASQGISSYLAWYQQKPGKAPKLLIYAASTLQSGVPSRFSGSGSGTDFTLTISSLQPEDSATYYCQQYFTFPLTFGGGTKVEIK
B6: AB2-6N/AB5-7C (bispecific antibody)
chain: EVQLLESGGGLVQPGGSLRLSCAASGFTFSHYVMAWVRQAPGKGLEWVSSISSSGGWTLYADSVKGRFTISRDNSKNTLYLQMNSLRAEDTAVYYCTRGLKMATIFDYWGQGTLVTVSSASTGGGGSGGGGSGGGGSQSALTQPASVSGSPGQSITISCTGTSSDVGSYNVVSWYQQHPGKAPKLIIYEVSQRPSGVSNRFSGSKSGNTASLTISGLQTEDEADYYCCSYAGSSIFVIFGGGTKVTVLGAAS[letters of about 600 residues left out]AAALQEVQLLESGGGLVQPGGSLRLSCAASGFTFSVYPMHWVRQAPGKGLEWVSSISSSGGATRYADSVKGRFTISRDNSKNTLYLQMNSLRAEDTAVYYCAKDFYDILTGNAFDIWGQGTMVTVSSASTGGGGSGGGGSGGGGSDIQMTQSPSSFSASTGDRVTITCRASQGISSYLAWYQQKPGKAPKLLIYAASTLQSGVPSRFSGSGSGTDFTLTISSLQPEDSATYYCQQYFTFPLTFGGGTKVEIK

Biological target: T1, IGF-1R (insulin-like growth factor 1 receptor) on tumor cells (human, UniProt P08069 31-1367)
T1 sequence (P08069 31-1367): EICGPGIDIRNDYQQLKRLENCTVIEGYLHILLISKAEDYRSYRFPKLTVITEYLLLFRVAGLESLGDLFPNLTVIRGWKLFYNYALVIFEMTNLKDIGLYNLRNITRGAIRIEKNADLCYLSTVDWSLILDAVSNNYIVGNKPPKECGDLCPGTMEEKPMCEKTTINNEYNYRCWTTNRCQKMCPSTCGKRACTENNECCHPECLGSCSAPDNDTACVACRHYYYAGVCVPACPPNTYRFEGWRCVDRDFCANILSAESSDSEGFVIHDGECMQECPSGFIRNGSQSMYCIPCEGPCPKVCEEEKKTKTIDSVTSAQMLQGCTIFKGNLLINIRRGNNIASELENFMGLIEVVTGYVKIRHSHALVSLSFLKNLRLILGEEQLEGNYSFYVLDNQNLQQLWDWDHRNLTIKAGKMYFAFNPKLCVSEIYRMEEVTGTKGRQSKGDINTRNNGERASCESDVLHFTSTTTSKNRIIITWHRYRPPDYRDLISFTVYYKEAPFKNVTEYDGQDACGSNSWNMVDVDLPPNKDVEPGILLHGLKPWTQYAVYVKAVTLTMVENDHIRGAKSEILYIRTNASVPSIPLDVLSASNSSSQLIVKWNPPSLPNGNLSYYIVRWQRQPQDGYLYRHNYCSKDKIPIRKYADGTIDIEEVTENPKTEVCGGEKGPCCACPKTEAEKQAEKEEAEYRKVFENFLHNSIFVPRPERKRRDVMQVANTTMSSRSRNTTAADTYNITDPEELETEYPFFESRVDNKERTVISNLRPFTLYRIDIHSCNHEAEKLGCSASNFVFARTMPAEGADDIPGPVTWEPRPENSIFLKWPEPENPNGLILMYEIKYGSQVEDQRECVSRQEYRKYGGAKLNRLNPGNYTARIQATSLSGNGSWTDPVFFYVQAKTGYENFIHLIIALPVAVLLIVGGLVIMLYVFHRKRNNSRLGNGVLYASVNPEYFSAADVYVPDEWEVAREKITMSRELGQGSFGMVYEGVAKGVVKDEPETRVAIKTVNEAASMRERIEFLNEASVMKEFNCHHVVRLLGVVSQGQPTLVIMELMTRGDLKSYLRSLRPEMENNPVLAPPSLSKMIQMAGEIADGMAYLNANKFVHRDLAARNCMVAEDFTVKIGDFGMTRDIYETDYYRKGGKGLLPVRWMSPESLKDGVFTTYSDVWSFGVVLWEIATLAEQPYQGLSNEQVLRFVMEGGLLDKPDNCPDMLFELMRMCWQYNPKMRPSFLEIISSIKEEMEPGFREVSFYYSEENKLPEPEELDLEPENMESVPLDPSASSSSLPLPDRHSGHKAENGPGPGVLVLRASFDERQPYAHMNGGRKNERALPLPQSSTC
Test: cell-based or functional assay

Going from B1 to B2, the “IC50, inhibition of IGF-1-induced pIGF-1R formation (ELISA, ADRr cells)” value (shortened to “IC50, inhibition”) rises from 11 nM to 28 nM.

Going from B3 to B4, the “IC50, inhibition” value rises from 3 nM to 27 nM.

Compared with B5, B6 is lower in “IC50, inhibition” value: 11 nM for the first, 6 nM for the second.

Biological target: T2, ErbB3 (HER3) on tumor cells (human, UniProt P21860 20-1342)
Test: cell-based or functional assay

Compared with B1, B2 is higher in “Ki, inhibition of HRG-induced pErbB3 formation (ELISA, ADRr cells)” value: 1.2 nM for the first, 37 nM for the second.

First: B3
Second: B4
The “Ki, inhibition of HRG-induced pErbB3 formation (ELISA, ADRr cells)” value of the first is lower: 3 nM for the first, 28 nM for the second.

First: B5
Second: B6
The “Ki, inhibition of HRG-induced pErbB3 formation (ELISA, ADRr cells)” value of the first is lower: 0.6 nM for the first, 1.1 nM for the second.

Biological target: T2, ErbB3 (HER3) on tumor cells
T2 sequence (P21860 20-1342): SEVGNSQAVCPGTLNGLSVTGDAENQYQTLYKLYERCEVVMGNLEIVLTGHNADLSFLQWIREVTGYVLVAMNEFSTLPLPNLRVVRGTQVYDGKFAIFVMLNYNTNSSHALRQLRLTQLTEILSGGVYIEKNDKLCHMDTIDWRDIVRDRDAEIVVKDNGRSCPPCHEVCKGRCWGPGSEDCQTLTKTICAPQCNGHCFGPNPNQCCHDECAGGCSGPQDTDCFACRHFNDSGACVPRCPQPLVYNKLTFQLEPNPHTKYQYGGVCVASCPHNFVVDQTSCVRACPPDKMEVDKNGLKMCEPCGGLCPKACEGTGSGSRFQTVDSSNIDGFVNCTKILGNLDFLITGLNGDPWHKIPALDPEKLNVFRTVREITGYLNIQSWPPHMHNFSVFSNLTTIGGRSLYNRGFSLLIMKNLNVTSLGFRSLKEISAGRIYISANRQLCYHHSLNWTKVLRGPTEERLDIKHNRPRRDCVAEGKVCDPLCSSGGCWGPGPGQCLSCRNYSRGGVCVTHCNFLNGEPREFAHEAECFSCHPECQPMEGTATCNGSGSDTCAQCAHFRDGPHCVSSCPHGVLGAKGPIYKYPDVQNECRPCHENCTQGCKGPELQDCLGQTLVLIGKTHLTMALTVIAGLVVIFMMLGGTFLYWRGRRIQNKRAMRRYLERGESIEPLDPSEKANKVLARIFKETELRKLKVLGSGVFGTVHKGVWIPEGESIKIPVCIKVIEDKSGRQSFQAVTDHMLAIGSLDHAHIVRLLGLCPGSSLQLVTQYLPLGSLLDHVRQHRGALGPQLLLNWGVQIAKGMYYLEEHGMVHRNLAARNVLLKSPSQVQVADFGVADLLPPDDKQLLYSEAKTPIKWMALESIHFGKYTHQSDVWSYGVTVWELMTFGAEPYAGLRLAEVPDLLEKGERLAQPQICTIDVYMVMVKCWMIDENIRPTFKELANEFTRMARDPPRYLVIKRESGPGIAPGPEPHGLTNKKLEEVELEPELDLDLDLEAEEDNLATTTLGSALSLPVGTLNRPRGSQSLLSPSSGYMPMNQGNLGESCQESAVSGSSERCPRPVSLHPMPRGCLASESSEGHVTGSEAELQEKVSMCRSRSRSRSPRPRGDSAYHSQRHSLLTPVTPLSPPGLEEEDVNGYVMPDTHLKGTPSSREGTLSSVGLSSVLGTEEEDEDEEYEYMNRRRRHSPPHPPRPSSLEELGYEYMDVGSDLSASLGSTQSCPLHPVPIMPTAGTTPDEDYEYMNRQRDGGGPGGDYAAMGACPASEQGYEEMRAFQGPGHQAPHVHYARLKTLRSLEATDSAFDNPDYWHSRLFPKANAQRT
Test: cell-based or functional assay
Remark: another data set of the same source

Compared with B1, B2 is higher in “Ki, inhibition of BTC-induced pErbB3 formation (ELISA, ADRr cells)” value: 0.56 nM for the first, 23 nM for the second.

First: B3
Second: B4
The “Ki, inhibition of BTC-induced pErbB3 formation (ELISA, ADRr cells)” value of the first is lower: 5.4 nM for the first, 14.2 nM for the second.

Going from B5 to B6, the “Ki, inhibition of BTC-induced pErbB3 formation (ELISA, ADRr cells)” value rises from 0.52 nM to 6.5 nM.

Biological target: T1, IGF-1R (insulin-like growth factor 1 …)
Test: cell-based or functional assay
Remark: another data set of the same source

First: B2
Second: B3
The “Ki, inhibition of IGF-1-induced pAKT formation (ELISA, MCF7 cells)” value of the first is higher: 25 nM for the first, 6 nM for the second.

Going from B4 to B5, the “Ki, inhibition of IGF-1-induced pAKT formation (ELISA, MCF7 cells)” value falls from 40 nM to 4 nM.

For B6, the “Ki, inhibition of IGF-1-induced pAKT formation (ELISA, MCF7 cells)” value was 14 nM.

Biological target: T1, IGF-1R (insulin-like growth factor 1 …)
Test: cell-based or functional assay
Remark: another data set of the same source

Going from B1 to B2, the “Ki, inhibition of IGF2-induced pIGF-IR formation (ELISA, MCF7 cells)” value rises from 0.27 nM to 16.8 nM.

First: B3
Second: B4
The “Ki, inhibition of IGF2-induced pIGF-IR formation (ELISA, MCF7 cells)” value of the first is lower: 2.3 nM for the first, 14 nM for the second.

Going from B5 to B6, the “Ki, inhibition of IGF2-induced pIGF-IR formation (ELISA, MCF7 cells)” value rises from 0.74 nM to 4.1 nM.

Biological target: T1, IGF-1R (insulin-like growth factor 1 …)
Test: cell-based or functional assay
Remark: another data set of the same source

Going from B3 to B4, the “Ki, inhibition of IGF2-induced pAKT formation (ELISA, MCF7 cells)” value rises from 1.9 nM to 14.1 nM.

B5 was tested, and the “Ki, inhibition of IGF2-induced pAKT formation (ELISA, MCF7 cells)” value was 70 pM.
